# Data from the supplement of paper PMC10037445.
# Where “and” joins values, the source holds several entries; their conditions need not be identical. Equal entries are not always repeated. Over roughly 2,900 compounds, “IRF Lucia reporter activity, fold change vs agonist alone” has its median near 0.9; the highest 2% begin near 2.8. This is one part of the list.
# Key:
# [1] = test system: RAW-Dual; experiment: IRF Lucia reporter activity, fold change vs agonist alone; cytotoxicity flag (confluency mask): not cytotoxic; higher = enhanced IRF activity
# Method in brief: (§1)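 Reporter activity is given as fold change relative to agonist-alone wells. To measure it, 50 nL of library stock was pin-tooled onto RAW-Dual macrophages (50,000 cells/well, DMEM, 384-well plates), a PRR agonist followed 1 h later, and cells stayed at 37 °C, 5% CO2. Twenty hours on, supernatant was assayed for IRF (QuantiLuc luminescence) and NF-κB (QuantiBlue, 620 nm absorbance), and wells under 70% of agonist-control IncuCyte confluency in both mask sets were marked cytotoxic.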
# [2] = test system: RAW-Dual; experiment: IRF Lucia reporter activity, fold change vs agonist alone; higher = enhanced IRF activity; conditions: agonist: MPLA (TLR4) […]
# Method in brief: as §1
# [3] = test system: RAW-Dual; experiment: IRF Lucia reporter activity, fold change vs agonist alone; cytotoxicity flag (confluency mask): cytotoxic (confluency <70% of control); higher = enhanced IRF activity
# Method in brief: as §1
# [4] = agonist: 3'3'-cGAMP (STING) 10 ug/mL
# [5] = library stock concentration (final ~1000-fold dilution): 10 mM, cytotoxicity flag (confluency mask): not cytotoxic
# [6] = library stock concentration (final ~1000-fold dilution): 10 mM, cytotoxicity flag (confluency mask): cytotoxic (confluency <70% of control)
smiles,measurement,setting,value
Nc1ccc(F)cc1NC(=O)c1ccc(CNC(=O)/C=C/c2cccnc2)cc1 (library stock concentration (final ~1000-fold dilution): 10 mM),IRF Lucia reporter activity,[1]; [4],0.467
same,IRF Lucia reporter activity,[1]; agonist: LPS (TLR4) 0.1 ug/mL,0.477
COc1ccc(COc2cc3oc(=O)c4cc(C(C)O)ccc4c3cc2OC)cc1 (configuration not stated),IRF Lucia reporter activity,[2]; [5],1.36
COc1ccc(COc2cc3oc(=O)c4cc(C(C)O)ccc4c3cc2OC)cc1 (configuration not stated) (library stock concentration (final ~1000-fold dilution): 10 mM),IRF Lucia reporter activity,[1]; [4],0.813
same,IRF Lucia reporter activity,[1]; agonist: LPS (TLR4) 0.1 ug/mL,1.24
CC/C=C\C/C=C\C/C=C\C/C=C\C/C=C\C/C=C\CCC(=O)NCCNC(=O)c1ccccc1O (library stock concentration (final ~1000-fold dilution): 10 mM),IRF Lucia reporter activity,[3]; [4],0.0149
same,IRF Lucia reporter activity,[3]; agonist: LPS (TLR4) 0.1 ug/mL,0.0265
CC(C)C(NC(=O)C(CC(=O)O)NC(=O)C(CCCCN)NC(=O)C(N)CCCNC(=N)N)C(=O)NC(Cc1ccc(O)cc1)C(=O)O (configuration not stated),IRF Lucia reporter activity,[2]; [5],0.987
CC(C)C(NC(=O)C(CC(=O)O)NC(=O)C(CCCCN)NC(=O)C(N)CCCNC(=N)N)C(=O)NC(Cc1ccc(O)cc1)C(=O)O (configuration not stated) (library stock concentration (final ~1000-fold dilution): 10 mM),IRF Lucia reporter activity,[1]; [4],1.04
same,IRF Lucia reporter activity,[1]; agonist: LPS (TLR4) 0.1 ug/mL,0.875
Cl.OC(CCN1CCCCC1)(c1ccccc1)C1CCCCC1 (configuration not stated),IRF Lucia reporter activity,[2]; [5],1.21
Cl.OC(CCN1CCCCC1)(c1ccccc1)C1CCCCC1 (configuration not stated) (library stock concentration (final ~1000-fold dilution): 10 mM),IRF Lucia reporter activity,[1]; [4],0.687
same,IRF Lucia reporter activity,[1]; agonist: LPS (TLR4) 0.1 ug/mL,1.49
CC1=C(CSC(=S)N2CCCCC2)C(=O)c2ccccc2C1=O (library stock concentration (final ~1000-fold dilution): 10 mM),IRF Lucia reporter activity,[3]; [4],0.553
same,IRF Lucia reporter activity,[3]; agonist: LPS (TLR4) 0.1 ug/mL,0.0143
COc1cc(O)c(C(=O)Nc2nc(C(=O)NCCN(C(C)C)C(C)C)cs2)cc1OC.Cl.O.O.O (library stock concentration (final ~1000-fold dilution): 10 mM),IRF Lucia reporter activity,[1]; [4],0.967
same,IRF Lucia reporter activity,[1]; agonist: LPS (TLR4) 0.1 ug/mL,0.665
COc1cc(O)c(C(=O)Nc2nc(C(=O)NCCN(C(C)C)C(C)C)cs2)cc1OC.Cl.O.O.O,IRF Lucia reporter activity,[2]; [5],1.03
NC(CSC(c1ccccc1)(c1ccccc1)c1ccccc1)C(=O)O (configuration not stated),IRF Lucia reporter activity,[2]; [5],1.49
NC(CSC(c1ccccc1)(c1ccccc1)c1ccccc1)C(=O)O (configuration not stated) (library stock concentration (final ~1000-fold dilution): 10 mM),IRF Lucia reporter activity,[1]; [4],0.693
same,IRF Lucia reporter activity,[1]; agonist: LPS (TLR4) 0.1 ug/mL,1.77
OCC(O)CN1CCN(c2ccccc2)CC1 (configuration not stated),IRF Lucia reporter activity,[2]; [5],1.13
OCC(O)CN1CCN(c2ccccc2)CC1 (configuration not stated) (library stock concentration (final ~1000-fold dilution): 10 mM),IRF Lucia reporter activity,[1]; [4],1.06
same,IRF Lucia reporter activity,[1]; agonist: LPS (TLR4) 0.1 ug/mL,1.05
COc1ccc(-c2coc3cc(O)cc(O)c3c2=O)cc1 (library stock concentration (final ~1000-fold dilution): 10 mM),IRF Lucia reporter activity,[1]; [4],1.05
same,IRF Lucia reporter activity,[1]; agonist: LPS (TLR4) 0.1 ug/mL,1.22
COc1ccc(-c2coc3cc(O)cc(O)c3c2=O)cc1,IRF Lucia reporter activity,[2]; [5],1.12
CCCCC1=NC2(CCCC2)C(=O)N1Cc1ccc(-c2ccccc2-c2nn[nH]n2)cc1,IRF Lucia reporter activity,"[2]; library stock concentration (final ~1000-fold dilution): 2 mM, cytotoxicity flag (confluency mask): not cytotoxic",1.19
CCCCC1=NC2(CCCC2)C(=O)N1Cc1ccc(-c2ccccc2-c2nn[nH]n2)cc1 (library stock concentration (final ~1000-fold dilution): 2 mM),IRF Lucia reporter activity,[1]; [4],1.07
same,IRF Lucia reporter activity,[1]; agonist: LPS (TLR4) 0.1 ug/mL,1.02
CC(C)(C)c1cc(/C=C(\C#N)C(N)=S)cc(C(C)(C)C)c1O (library stock concentration (final ~1000-fold dilution): 10 mM),IRF Lucia reporter activity,[3]; [4],0.0348
same,IRF Lucia reporter activity,[3]; agonist: LPS (TLR4) 0.1 ug/mL,0.763
CC(C)(C)c1cc(/C=C(\C#N)C(N)=S)cc(C(C)(C)C)c1O,IRF Lucia reporter activity,[2]; [6],0.726
CCCCS(=O)(=O)NC(Cc1ccc(OCCCCC2CCNCC2)cc1)C(=O)O.Cl.O (configuration not stated) (library stock concentration (final ~1000-fold dilution): 10 mM),IRF Lucia reporter activity,[1]; [4],0.894
same,IRF Lucia reporter activity,[1]; agonist: LPS (TLR4) 0.1 ug/mL,1.35
CC(C)CC(NC(=O)C(Cc1ccccc1)CC(O)C(Cc1ccccc1)NC(=O)OC(C)(C)C)C(=O)NC(Cc1ccccc1)C(N)=O (configuration not stated) (library stock concentration (final ~1000-fold dilution): 10 mM),IRF Lucia reporter activity,[1]; [4],1.1
same,IRF Lucia reporter activity,[1]; agonist: LPS (TLR4) 0.1 ug/mL,1.5
Nc1ccn(C2OC(CO)C(O)C2(F)F)c(=O)n1 (configuration not stated) (library stock concentration (final ~1000-fold dilution): 10 mM),IRF Lucia reporter activity,[3]; [4],1.58
same,IRF Lucia reporter activity,[3]; agonist: LPS (TLR4) 0.1 ug/mL,1.43
Nc1ccn(C2OC(CO)C(O)C2(F)F)c(=O)n1 (configuration not stated),IRF Lucia reporter activity,[2]; [6],1.3
CC(O)C(=O)O.CN1CCN(c2ccc3nc(-c4c(N)c5c(F)cccc5[nH]c4=O)[nH]c3c2)CC1 (library stock concentration (final ~1000-fold dilution): 10 mM),IRF Lucia reporter activity,[3]; [4],0.013
same,IRF Lucia reporter activity,[3]; agonist: LPS (TLR4) 0.1 ug/mL,0.026
O=C(NC1CCNCC1)c1n[nH]cc1NC(=O)c1c(Cl)cccc1Cl (library stock concentration (final ~1000-fold dilution): 10 mM),IRF Lucia reporter activity,[3]; [4],0.432
same,IRF Lucia reporter activity,[3]; agonist: LPS (TLR4) 0.1 ug/mL,0.842
O=C(NC1CCNCC1)c1n[nH]cc1NC(=O)c1c(Cl)cccc1Cl,IRF Lucia reporter activity,[2]; [6],0.317
O=CN1CC/C(=C/c2ccc3c(c2)OCO3)C1=O (library stock concentration (final ~1000-fold dilution): 10 mM),IRF Lucia reporter activity,[1]; [4],0.61
same,IRF Lucia reporter activity,[1]; agonist: LPS (TLR4) 0.1 ug/mL,0.421
CS(=O)(=O)O.Cc1ccc(NC(=O)c2ccc(CN3CCN(C)CC3)cc2)cc1Nc1nccc(-c2cccnc2)n1,IRF Lucia reporter activity,[2]; [6],0.941
CS(=O)(=O)O.Cc1ccc(NC(=O)c2ccc(CN3CCN(C)CC3)cc2)cc1Nc1nccc(-c2cccnc2)n1 (library stock concentration (final ~1000-fold dilution): 10 mM),IRF Lucia reporter activity,[3]; [4],0.318
same,IRF Lucia reporter activity,[3]; agonist: LPS (TLR4) 0.1 ug/mL,0.601
CCCCOc1cc(C(=O)NCCN(CC)CC)c2ccccc2n1.Cl,IRF Lucia reporter activity,[2]; [5],1.4
CCCCOc1cc(C(=O)NCCN(CC)CC)c2ccccc2n1.Cl (library stock concentration (final ~1000-fold dilution): 10 mM),IRF Lucia reporter activity,[1]; [4],1.09
same,IRF Lucia reporter activity,[1]; agonist: LPS (TLR4) 0.1 ug/mL,1.18
CCCC(CCC)C(=O)O (library stock concentration (final ~1000-fold dilution): 10 mM),IRF Lucia reporter activity,[1]; [4],0.816 and 1.01 and 1.05
same,IRF Lucia reporter activity,[1]; agonist: LPS (TLR4) 0.1 ug/mL,0.941 and 0.866 and 1
CC12CCC(O)CC1=CCC1C2CCC2(C)C(C(O)CC(O)(C(F)(F)F)C(F)(F)F)CCC12 (configuration not stated) (library stock concentration (final ~1000-fold dilution): 10 mM),IRF Lucia reporter activity,[1]; [4],1.03
same,IRF Lucia reporter activity,[1]; agonist: LPS (TLR4) 0.1 ug/mL,1.31
